The RNAGym collection of RNA variant scans (doi:10.7554/elife.90254)
Read counts are not given, so values of variants with three or more changes are uncertain.

B1: LINE1-mini (parent)
chain: GGCAGAGCUCAACACAGCGUGGCAAAGUGGCUGUGGCUAGACUGCC

Variants of: B1
Experiment: self-cleavage, relative activity (ratio to wild type); higher = more cleavage; in vitro, sequencing; the parent is a self-cleaving ribozyme

| Variant | self-cleavage |
| --- | --- |
| GACAGAGCUCAACACAGCCUGACAAGGUGGCUGUGGCUGGACUGCC [G2A G19C G22A A26G A39G] | 0.06 |
| GACAGAGCUCAACACAGCAUGGCAAAGUGCCUGUGUCUAGACUGCC [G2A G19A G30C G36U] | 1.06 |
| GACAGAGCUCAACACAGCGUGGCAAACUGGCUCUGGCUAGACUGGC [G2A G27C G33C C45G] | 0.05 |
| GACAUAGCUCAACAAAGCGUGGCAAAGUUGCUGGGGCUAGACUGGC [G2A G5U C15A G29U U34G C45G] | 0.1 |
| GACAGAACUCAACACGGCGUGGCAAAGUGGCUGUGGCUAGACUGCA [G2A G7A A16G C46A] | 0.42 |
| GACAGAGCUCAACACACCCUGGCAAAGUGGCUCUGGCUAGACUGCC [G2A G17C G19C G33C] | 0.03 |
| GACAUAGCUCAACACAGCAUGGCAACGUGGCUGUGCCUAGACUGCC [G2A G5U G19A A26C G36C] | 0.06 |
| GACAGACCUCAAUACAGCGUGGCAAAGUGGCUGUGGCUAGACAGCC [G2A G7C C13U U43A] | 0.56 |
| GACAGAGCUCAACACAGCAUGGCAACGUGGCUGUGGCUAGACUGCC [G2A G19A A26C] | 0.42 |
| GACAGAGCUCAACACAACGUGGCAAAGUGGCUGUGGCUAGACUGUC [G2A G17A C45U] | 1.15 |
| GACAUAACGCAACACAGCGUGGCAAAGUGGCUGAGGCUAGACUGCU [G2A G5U G7A U9G U34A C46U] | 0.13 |
| GACAGAGCUCAACACAGCGUGCCAAAGUGGCUGUGGCUAGACUACC [G2A G22C G44A] | 0.17 |
| GACAGAGCUCAACACAGCAAGGUAAAGUGGCUGUGGCCAGACUGCC [G2A G19A U20A C23U U38C] | 2.54 |
| GACAGAGCUCAACACAUUCUGGCAAAGUGUCUGUGGCUAGACUGCC [G2A G17U C18U G19C G30U] | 0.63 |
| GACAUAGCUUAACACAGCGUGGCAAAGUGGCUGUGGCUAGACAGCC [G2A G5U C10U U43A] | 0.12 |
| GACAUAUCUCAAGACAGCGUGGCAAAGUGGGUGUGGCUAGACUGCC [G2A G5U G7U C13G C31G] | 0.17 |
| GACAGAACUCAACAUAGCGUGGCAAAGUGGCUGAGGCUAGACUGCA [G2A G7A C15U U34A C46A] | 0.06 |
| GACAGAGCUCAACACACCGGGGCAAAGUGGCUGUGGCUAGCCUGCC [G2A G17C U20G A41C] | 0.02 |
| GACAGAGCUCAACACAGCGUUGCAAAGUGGCUGUGCCUAGAGUGCC [G2A G21U G36C C42G] | 0.16 |

| Variant | self-cleavage |
| --- | --- |
| GACAUAGCUCAACACAGCGUGGCAAAGUGGCUGUGGCUAGACUGCG [G2A G5U C46G] | 0.07 |
| GACAGAGCUCAACACAGCAUGGCAAUGUCGCUGGGGCUAGACUGCC [G2A G19A A26U G29C U34G] | 0.08 |
| GACAGAGCUCAACACAGCAUGGCAAAGUGUCGGUGGCUAGACUGCC [G2A G19A G30U U32G] | 0.29 |
| GACAGAGCUCAACACAGCGUGGCAAAGUGCCUGUGGUUAGACUGCC [G2A G30C C37U] | 0.22 |
| GACAGAGCUCAACACAGCAUGGUAAAGUGACUGUAGCUAGACUGCC [G2A G19A C23U G30A G35A] | 1.04 |
| GACAUACCUCAACACAGUGUGGCAAAGUGGAUGUGGCUAGACGGCC [G2A G5U G7C C18U C31A U43G] | 0.01 |
| GACAGAGCUCAACACAUCGUGGCAAAGUGGCUGUGUCUAGACUGCC [G2A G17U G36U] | 0.05 |
| GACAGAGCUCAACACAGCGUGGCAAAGUGACUGAGGCUAGACUGCC [G2A G30A U34A] | 0.17 |
| GACAGAGCUCAACACAGCCUGGUAAAGUGGCUGUGGCUAGACUGCC [G2A G19C C23U] | 0.1 |
| GACAGACCUCAACAGAGCGUGGCAAAGUGGCUGUGGCGAGACUGCC [G2A G7C C15G U38G] | 0.12 |
| GACAGAGCUCAACACAGCUUGGCAAAGUGGCUGUGGCUAGACUGCA [G2A G19U C46A] | 0.83 |
| GACAGAGCUCAACACAGCGUGGCAAACUAGCUGUGGCUAGACUGGC [G2A G27C G29A C45G] | 0.53 |
| GACAGAGCUCAACACACCGUGGCAAAGUGGCAAUGGCUAGACUGCC [G2A G17C U32A G33A] | 0.12 |
| GACAGAGCUCAACACAGCAUGGCAAAGUUGCUGUGGCUAGACUGCC [G2A G19A G29U] | 1.41 |
| GACAGAGCUCAACACAGCGUGGCAAACUGGCUGAGGCUAGACUACC [G2A G27C U34A G44A] | 0.12 |
| GACAGAUCUCAACACGGCGUGGCGAAGUGGCUGUGGCUAGACUGCC [G2A G7U A16G A24G] | 0.04 |
| GACAGAGCUCAACACAGCGUGGCAAAGUUGCUGUGGCUAUACUGCC [G2A G29U G40U] | 0.53 |
| GACAGAACUCAACACAGCGUGGCAAAGUGGCUGUGGCUAGACUGUC [G2A G7A C45U] | 0.91 |
| GACAGAAUUCAACACAGCGUGGCGAAGUGGCUGUGGCUAGACUGCC [G2A G7A C8U A24G] | 0.86 |

| Variant | self-cleavage |
| --- | --- |
| GACAGAGCUCAACACAGCGUGACAAAGUGGCUGUGGCUUGACUGCC [G2A G22A A39U] | 0.41 |
| GACAGAGCUCAACACAGCGUGGCAAAGUCGCUGCGGCGAUACUGCC [G2A G29C U34C U38G G40U] | 0.14 |
| GACAGAGCUCAACACACCGUGGCAAAGUGGUAGUGGCUAGACUGCC [G2A G17C C31U U32A] | 0.16 |
| GACAUAUCUCAACACAACGUAGCAAAGGGGCUGGGGCUAAACUGCC [G2A G5U G7U G17A G21A U28G U34G G40A] | 0.04 |
| GACAGAACUCAACACAGCGUGGCGAAUUGGCUGUGGAUAGACUGCG [G2A G7A A24G G27U C37A C46G] | 0.38 |
| GACAGAGCUCAACACAGCGUAGCAAAGUGUCUGUGGCUAGCCUGCC [G2A G21A G30U A41C] | 0.08 |
| GACAGAGCUCAACACAGCGUGGCAAAAUGGAUGUGGCUAGACUGCC [G2A G27A C31A] | 0.35 |
| GACAGAGCUCAACACACCGUGGCAAAGUGGCUGUGGCUAUACUGCC [G2A G17C G40U] | 0.16 |
| GACAGAGCUCAACACAGCGUGGCAAAGUGACUGUGGCUUGACUGCC [G2A G30A A39U] | 0.47 |
| GACAGACCUCAACACAGCGUCGCAAAGUGGCUGUGGCUAGACUGCC [G2A G7C G21C] | 0.27 |
| GACAGAGCUCAACACAGCGUUGCAAAGUGGCUGUUGCUACACUGCC [G2A G21U G35U G40C] | 0.13 |
| GACAGAGCUCAACACAGCGUGCCAAAGUGGCUGUGUCUAGACUGCC [G2A G22C G36U] | 0.15 |
| GACAGAGCUCAACACAGCGUAGCAAAGUGGCUGUGGCUUGACUGCA [G2A G21A A39U C46A] | 1.34 |
| GACAUAGCUCAACACAGCGUGGCAAAGUGGCUAUGGCUAGACUGCC [G2A G5U G33A] | 0.03 |
| GACAGAGCUCAACACAGCGUAGCAAAGUGGCUGUGGCUAGACUGAC [G2A G21A C45A] | 0.63 |
| GACAGAGCUCAACACAGCGUGGCAAAGUGACUGUGGCUAGGCUGCC [G2A G30A A41G] | 0.87 |
| GACAGACCUCAACACAGCGUGGCAUAGUGGCUGUGGCUAGACUGCC [G2A G7C A25U] | 0.17 |
| GACAGAGCUCAACACAGCGUGGCAAACUGGCUGUGGGUAGACUGCC [G2A G27C C37G] | 0.16 |
